# Measured values from the supplement of paper PMC8728848.
# This is one part of the list.
# B1: CVN-E41G (protein)
# chain: MHHHHHHENLYFQSGNFSQACYNSAIQGSVLTSTCIRTNGGYNTSSIDLNSVIGNVDGSLKWQGSNFIETCRNTQLAGSSELAAECKTRAQQFVSTKINLDDHIAAIDGTLKYE
# Key:
# Test in all cases: glycan array binding signal (z-score within array); higher = stronger binding
# Conditions in all cases: glycan notation: IUPAC condensed, linker removed; mutation: E41G
# [1] = molecular target: Gal(b1-4)GlcNAc(b1-3)Gal(b1-4)GlcNAc(b1-2)Man(a1-3)[Gal(b1-4)GlcNAc(b1-3)Gal(b1-4)GlcNAc(b1-2)Man(a1-6)]Man(b1-4)GlcNAc(b1-4)[Fuc(a1-6)]GlcNAc
# How it was run: (§1)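 Columns mapping to the same glycan were averaged after glycan names were converted to IUPAC-condensed notation. The data come from 3228 arrays in the Consortium for Functional Glycomics database, limited to those with an available protein sequence. Binding is reported as a within-array Z-score averaged across arrays of one protein sequence and across linkers.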
# [2] = molecular target: Gal(b1-4)GlcNAc(b1-3)Gal(b1-4)GlcNAc(b1-2)[Gal(b1-4)GlcNAc(b1-3)Gal(b1-4)GlcNAc(b1-6)]Man(a1-6)[Gal(b1-4)GlcNAc(b1-3)Gal(b1-4)GlcNAc(b1-2)Man(a1-3)]Man(b1-4)GlcNAc(b1-4)GlcNAc
# How it was run: as §1
# [3] = molecular target: Gal(b1-4)GlcNAc(b1-3)Gal(b1-4)GlcNAc(b1-2)[Gal(b1-4)GlcNAc(b1-3)Gal(b1-4)GlcNAc(b1-6)]Man(a1-6)[Gal(b1-4)GlcNAc(b1-3)Gal(b1-4)GlcNAc(b1-2)Man(a1-3)]Man(b1-4)GlcNAc(b1-4)[Fuc(a1-6)]GlcNAc
# How it was run: as §1
# [4] = molecular target: Gal(b1-4)GlcNAc(b1-3)Gal(b1-4)GlcNAc(b1-3)Gal(b1-4)GlcNAc
# How it was run: as §1
# [5] = molecular target: Gal(b1-4)GlcNAc(b1-3)Gal(b1-4)GlcNAc(b1-3)Gal(b1-4)GlcNAc(b1-2)Man(a1-3)[Gal(b1-4)GlcNAc(b1-3)Gal(b1-4)GlcNAc(b1-3)Gal(b1-4)GlcNAc(b1-2)Man(a1-6)]Man(b1-4)GlcNAc(b1-4)GlcNAc
# How it was run: as §1
# [6] = molecular target: Gal(b1-4)GlcNAc(b1-3)Gal(b1-4)GlcNAc(b1-3)Gal(b1-4)GlcNAc(b1-2)Man(a1-3)[Gal(b1-4)GlcNAc(b1-3)Gal(b1-4)GlcNAc(b1-3)Gal(b1-4)GlcNAc(b1-2)Man(a1-6)]Man(b1-4)GlcNAc(b1-4)[Fuc(a1-6)]GlcNAc
# How it was run: as §1
# [7] = molecular target: Gal(b1-4)GlcNAc(b1-3)Gal(b1-4)GlcNAc(b1-3)Gal(b1-4)GlcNAc(b1-2)[Gal(b1-4)GlcNAc(b1-3)Gal(b1-4)GlcNAc(b1-3)Gal(b1-4)GlcNAc(b1-6)]Man(a1-6)[Gal(b1-4)GlcNAc(b1-3)Gal(b1-4)GlcNAc(b1-3)Gal(b1-4)GlcNAc(b1-2)Man(a1-3)]Man(b1-4)GlcNAc(b1-4)[Fuc(a1-6)]GlcNAc
# How it was run: as §1
# [8] = molecular target: Gal(b1-4)GlcNAc(b1-3)Gal(b1-4)GlcNAc(b1-3)Gal(b1-4)GlcNAc(b1-3)Gal(b1-4)GlcNAc(b1-2)Man(a1-3)[Gal(b1-4)GlcNAc(b1-3)Gal(b1-4)GlcNAc(b1-3)Gal(b1-4)GlcNAc(b1-3)Gal(b1-4)GlcNAc(b1-2)Man(a1-6)]Man(b1-4)GlcNAc(b1-4)GlcNAc
# How it was run: as §1
# [9] = molecular target: Gal(b1-4)GlcNAc(b1-3)Gal(b1-4)GlcNAc(b1-3)Gal(b1-4)GlcNAc(b1-3)Gal(b1-4)GlcNAc(b1-2)Man(a1-3)[Gal(b1-4)GlcNAc(b1-3)Gal(b1-4)GlcNAc(b1-3)Gal(b1-4)GlcNAc(b1-3)Gal(b1-4)GlcNAc(b1-2)Man(a1-6)]Man(b1-4)GlcNAc(b1-4)[Fuc(a1-6)]GlcNAc
# How it was run: as §1
# [10] = molecular target: Gal(b1-4)GlcNAc(b1-3)Gal(b1-4)GlcNAc(b1-3)Gal(b1-4)GlcNAc(b1-3)Gal(b1-4)GlcNAc(b1-2)[Gal(b1-4)GlcNAc(b1-3)Gal(b1-4)GlcNAc(b1-3)Gal(b1-4)GlcNAc(b1-3)Gal(b1-4)GlcNAc(b1-6)]Man(a1-6)[Gal(b1-4)GlcNAc(b1-3)Gal(b1-4)GlcNAc(b1-3)Gal(b1-4)GlcNAc(b1-3)Gal(b1-4)GlcNAc(b1-2)Man(a1-3)]Man(b1-4)GlcNAc(b1-4)[Fuc(a1-6)]GlcNAc
# How it was run: as §1
# [11] = molecular target: Gal(b1-4)GlcNAc(b1-3)Gal(b1-4)GlcNAc(b1-3)Gal(b1-4)GlcNAc(b1-3)Gal(b1-4)GlcNAc(b1-3)Gal(b1-4)GlcNAc(b1-2)Man(a1-3)[Gal(b1-4)GlcNAc(b1-3)Gal(b1-4)GlcNAc(b1-3)Gal(b1-4)GlcNAc(b1-3)Gal(b1-4)GlcNAc(b1-3)Gal(b1-4)GlcNAc(b1-2)Man(a1-6)]Man(b1-4)GlcNAc(b1-4)GlcNAc
# How it was run: as §1
# [12] = molecular target: Gal(b1-4)GlcNAc(b1-3)Gal(b1-4)GlcNAc(b1-3)Gal(b1-4)GlcNAc(b1-3)Gal(b1-4)GlcNAc(b1-3)Gal(b1-4)GlcNAc(b1-2)Man(a1-3)[Gal(b1-4)GlcNAc(b1-3)Gal(b1-4)GlcNAc(b1-3)Gal(b1-4)GlcNAc(b1-3)Gal(b1-4)GlcNAc(b1-3)Gal(b1-4)GlcNAc(b1-2)Man(a1-6)]Man(b1-4)GlcNAc(b1-4)[Fuc(a1-6)]GlcNAc
# How it was run: as §1
# [13] = molecular target: Gal(b1-4)GlcNAc(b1-3)Gal(b1-4)GlcNAc(b1-3)Gal(b1-4)GlcNAc(b1-3)Gal(b1-4)GlcNAc(b1-3)Gal(b1-4)GlcNAc(b1-2)[Gal(b1-4)GlcNAc(b1-3)Gal(b1-4)GlcNAc(b1-3)Gal(b1-4)GlcNAc(b1-3)Gal(b1-4)GlcNAc(b1-3)Gal(b1-4)GlcNAc(b1-6)]Man(a1-6)[Gal(b1-4)GlcNAc(b1-3)Gal(b1-4)GlcNAc(b1-3)Gal(b1-4)GlcNAc(b1-3)Gal(b1-4)GlcNAc(b1-3)Gal(b1-4)GlcNAc(b1-2)Man(a1-3)]Man(b1-4)GlcNAc(b1-4)[Fuc(a1-6)]GlcNAc
# How it was run: as §1
# [14] = molecular target: Gal(b1-4)GlcNAc(b1-3)Gal(b1-4)GlcNAc(b1-3)Gal(b1-4)GlcNAc(b1-3)Gal(b1-4)GlcNAc(b1-3)Gal(b1-4)GlcNAc(b1-3)Gal(b1-4)GlcNAc(b1-2)Man(a1-3)[Gal(b1-4)GlcNAc(b1-3)Gal(b1-4)GlcNAc(b1-3)Gal(b1-4)GlcNAc(b1-3)Gal(b1-4)GlcNAc(b1-3)Gal(b1-4)GlcNAc(b1-3)Gal(b1-4)GlcNAc(b1-2)Man(a1-6)]Man(b1-4)GlcNAc(b1-4)GlcNAc
# How it was run: as §1
# [15] = molecular target: Gal(b1-4)GlcNAc(b1-3)Gal(b1-4)GlcNAc(b1-3)GalNAc
# How it was run: as §1
# [16] = molecular target: Gal(b1-4)GlcNAc(b1-3)Gal(b1-4)GlcNAc(b1-3)[Gal(b1-4)GlcNAc(b1-3)Gal(b1-4)GlcNAc(b1-6)]GalNAc
# How it was run: as §1
# [17] = molecular target: Gal(b1-4)GlcNAc(b1-3)Gal(b1-4)GlcNAc(b1-6)[Gal(b1-3)]GalNAc
# How it was run: as §1
# [18] = molecular target: Gal(b1-4)GlcNAc(b1-3)Gal(b1-4)[Fuc(a1-3)]GlcNAc(b1-3)Gal(b1-4)[Fuc(a1-3)]GlcNAc
# How it was run: as §1
# [19] = molecular target: Gal(b1-4)GlcNAc(b1-3)GalNAc
# How it was run: as §1
# [20] = molecular target: Gal(b1-4)GlcNAc(b1-3)[Fuc(a1-3)GlcNAc(b1-6)]Gal(b1-4)Glc
# How it was run: as §1
# [21] = molecular target: Gal(b1-4)GlcNAc(b1-3)[Gal(b1-4)GlcNAc(b1-6)]Gal(b1-4)GlcNAc
# How it was run: as §1
# [22] = molecular target: Gal(b1-4)GlcNAc(b1-3)[GlcNAc(b1-6)]Gal(b1-4)GlcNAc
# How it was run: as §1
binder,measurement,setting,value
B1,glycan array binding signal (z-score),[1],-0.111
same,glycan array binding signal (z-score),[2],0.062
same,glycan array binding signal (z-score),[3],-0.115
same,glycan array binding signal (z-score),[4],-0.177
same,glycan array binding signal (z-score),[5],-0.115
same,glycan array binding signal (z-score),[6],-0.111
same,glycan array binding signal (z-score),[7],-0.129
same,glycan array binding signal (z-score),[8],-0.153
same,glycan array binding signal (z-score),[9],-0.113
same,glycan array binding signal (z-score),[10],-0.125
same,glycan array binding signal (z-score),[11],-0.19
same,glycan array binding signal (z-score),[12],0.22
same,glycan array binding signal (z-score),[13],-0.119
same,glycan array binding signal (z-score),[14],-0.106
same,glycan array binding signal (z-score),[15],-0.169
same,glycan array binding signal (z-score),[16],-0.138
same,glycan array binding signal (z-score),[17],-0.139
same,glycan array binding signal (z-score),[18],-0.099
same,glycan array binding signal (z-score),[19],-0.161
same,glycan array binding signal (z-score),[20],-0.171
same,glycan array binding signal (z-score),[21],-0.179
same,glycan array binding signal (z-score),[22],-0.065
